PubChem BioAssay AID624296 (National Center for Advancing Translational Sciences (NCATS), 2012)
Screen size: about 350,000 compounds; about 9,900 (2.8%) were called active. The inconclusive results got no clear call from the source; some entries with a clear call stand among them for comparison. Calls follow the shape of the dose curve; as a rule, active = well fitted activation curve with a large enough effect; inconclusive = small, poorly fitted or top-dose-only effect; inactive = no such curve, though single readings can be large or run the other way. No potency is given beside an inconclusive call; the fits are too rough.

Test: A quantitative high throughput screen for small molecules that induce DNA re-replication in MCF 10a normal breast cells. Also: nearly all actives have a fitted effect of over 50% in size. As to activity, positive = re-replication: % of control where 0% means no effect.
Conditions: MCF 10A DNA re-replication, Hoechst nuclear intensity, 48 h; activity, positive = re-replication: at 46.1 µM (top of the series)
Potency is read from the fitted curve at half-maximal effect; tags tell the direction and shape of the fitted curve.

Compound	Potency	activity, positive = re-replication
CCC(CC)C(=O)N(CCc1ccc(OC)cc1)Cc1nc2ccccc2c(=O)[nH]1	active: 23.1 µM	–
O=C(Nc1nc2ccccc2[nH]1)C12CC3CC(CC(C3)C1)C2	inconclusive [activator, partial curve, poor fit]	–
Cc1ccc(OCCNC(=O)C(=O)NCc2ccco2)cc1	active: 1.64 µM	–
CCOc1ccccc1/C=C/c1cc(C(=O)O)c2ccccc2n1	inconclusive [activator, partial curve, poor fit]	–
O=C(CNCc1ccc(F)cc1)Nc1ccccc1-c1ccccc1	inconclusive [activator, single point]	–
COC(=O)c1c(C)[nH]c(C(=O)COc2ccc3ccc(=O)oc3c2)c1C	inconclusive [activator, single point]	–
COc1ccc2c([N+](=O)[O-])c(N3CCCC3)[nH]c2c1	inconclusive [activator, single point]	–
Brc1ccc(-c2noc(C3CCCCC3)n2)cc1	inconclusive [activator, single point]	–
COc1ccccc1/C=N/NC(=O)c1ccc(-c2ccccc2)cc1	active: 18.4 µM	–
c1ccc2c(CCNc3ncnc4nc[nH]c34)c[nH]c2c1	inconclusive [activator, partial curve, poor fit]	–
COc1ccc(Nc2cc(C)nc3c(C)cccc23)cc1OC	–	inactive: 19.2%
COc1ccc2nc(-c3ccco3)c(-c3ccco3)nc2c1	inconclusive [activator, single point]	–
O=C(CCN1C(=O)c2ccccc2C1=O)Nc1ccc(-c2nc3ccccc3s2)cc1	inconclusive [activator, single point]	–
CN1c2ccc(C=O)c3c(C=O)ccc(c23)N(C)C1(C)C	inconclusive [activator, partial curve, poor fit]	–
Cc1ccc(-n2nc3c(=O)n(CCCC(=O)NCC(C)c4ccccc4)nc(C)c3c2C)cc1 (centres undefined)	–	inactive: -2.29%
COc1ccc(C2(C)NC(=O)N(CC(=O)Nc3ccc(-c4nc5ccc(C)cc5s4)cc3)C2=O)cc1 (centres undefined)	active: 18.4 µM	–
Cc1ccc(-c2cc(C(=O)Nc3ccc(S(=O)(=O)N4CC(C)OC(C)C4)cc3)[nH]n2)c(O)c1 (centres undefined)	–	inactive: 8.39%
COc1ccc(NC(=O)CSc2cc(C)ccc2C)cn1	–	inactive: 1.31%
O=S(=O)(NCc1ccccc1)NCc1ccc(Cl)cc1Cl	inconclusive [activator, partial curve, poor fit]	–
C=CC[C@@H](Cc1ccc(F)cc1)C(=O)OC[C@@H]1CCCN1C(=O)[C@H](CC=C)CC(=O)N[C@H](CO)Cc1ccccc1	inconclusive [activator, partial curve]	–
Nc1nn2cc(-c3ccccc3)nc2c2ccccc12	–	inactive: 2.16%
O=C(NCc1ccccc1)C(c1ccccc1)N(Cc1ccc2c(c1)OCO2)C(=O)Cc1cccs1 (centres undefined)	inconclusive [activator, partial curve, poor fit]	–
CC12C(=O)N(c3ccc(OC(=O)c4ccco4)cc3)C(=O)C1C1c3ccccc3C2c2ccccc21 (centres undefined)	inconclusive [activator, single point]	–

Compound	Potency	activity, positive = re-replication
O=C(NCc1ccncc1)c1ccccc1Nc1ccc(SC(F)F)cc1	inconclusive [activator, single point]	–
CCOc1cccc(C(=O)NC(=S)Nc2cccc(C)c2)c1	–	inactive: 9.18%
CCCCN1C(=O)Nc2ccccc2S1=O (centres undefined)	inconclusive [activator, partial curve, poor fit]	–
CCC(C)c1ccccc1OCCCCN1CCCC1 (centres undefined)	inconclusive [activator, partial curve, poor fit]	–
Cc1ccccc1OCC(=O)Nc1ccc(N2CCN(C)CC2)c(Cl)c1	active: 14.6 µM	–
O=C(Nc1ccc(Cl)cc1)NC1CCCc2ccccc21 (centres undefined)	inconclusive [activator, partial curve, poor fit]	–
O=[N+]([O-])c1cc(C(F)(F)F)ccc1NCCc1c[nH]c2ccccc12	inconclusive [activator, single point]	–
COc1ccc(NS(=O)(=O)c2cc(C)ccc2NC(=O)c2cc(C)oc2C)cc1	active: 0.651 µM	–
COc1cc(-c2nnc(COC(=O)c3ccc(C)o3)o2)cc(OC)c1OC	–	inactive: 4.16%
C[C@H]1CN=C(Nc2ccccc2)N1CC1CCCCCC1	–	inactive: 1.33%
COCCn1c(-c2ccc(OC)cc2)cnc1SCC(=O)Nc1ccc(OC)cc1OC	–	inactive: -4.12%
Cc1cc(C)nc(/N=C(\N)Nc2ccc([N+](=O)[O-])cc2)n1	–	inactive: -65.6%
Cc1ccc(N(Cc2cc3cc(C)ccc3[nH]c2=O)S(=O)(=O)c2ccccc2)cc1	inconclusive [activator, partial curve, poor fit]	–
Cc1cc(-c2cn3ccccc3n2)c(C)n1-c1ccccc1	active: 20.6 µM	–
CCc1ccccc1NC(=O)Nc1c(C)n(C)n(-c2ccccc2)c1=O	–	inactive: 4.14%
Cn1c(=O)c(C(=O)Nc2ccccn2)c(O)c2ccccc21	–	inactive: 14%
CCN(Cc1ccccc1)C(=O)c1c[nH]c2ccc(S(=O)(=O)N(C)CCC#N)cc2c1=O	inconclusive [activator, single point]	–
O=C(COc1ccc([N+](=O)[O-])cc1)N1CCc2ccccc2C1	inconclusive [activator, partial curve, poor fit]	–
C/C(=N\NC(=S)NCCc1ccccc1)c1ccc(C#N)cc1	inconclusive [activator, single point]	–
COc1cc(OC)cc(C(C)=O)c1	–	inactive: -3.01%
Cc1nc2c(Br)cc(Br)cc2c(=O)n1-c1ccccc1NC1OCC(O)C(O)C1O (centres undefined)	inconclusive [activator, partial curve]	–
Cc1cc(C)cc(NC(=O)Nc2cc(-c3ccccc3)nn2C)c1	inconclusive [activator, single point]	–
Cc1ccc(C)c(Cn2nnc3c(=O)[nH]c(C4CCCN(C(=O)c5cccs5)C4)nc32)c1 (centres undefined)	inconclusive [activator, single point]	–

Compound	Potency	activity, positive = re-replication
N#CCCN1CCN(Cc2cc(-c3ccccc3)ccc2O)CC1	inconclusive [activator, partial curve]	–
c1ccc(-c2csc(Nc3cccnc3)n2)cc1	inconclusive [activator, partial curve]	–
CC(=O)N1CCN(C2c3cccc4cccc(c34)C2NS(=O)(=O)c2ccccc2)CC1 (centres undefined)	–	inactive: -7.76%
O=C(NCc1ccco1)C1CC(c2ccccc2O)=NO1 (centres undefined)	inconclusive [activator, single point]	–
CCCCN(CCCC)CCCNC(=O)Cn1cc2c(n1)-c1c(oc(C(=O)N3CCCC3)c1C)CC2	–	inactive: -0.906%
Cc1ccccc1-c1nnc(SCC(=O)Nc2cccnc2Cl)o1	–	inactive: -17.8%
O=C(CN1C(=O)/C(=C\c2ccccc2Cl)Oc2ccccc21)NCc1cccnc1	inconclusive [activator, single point]	–
COc1ccc(-c2ccc3c(c2)S(=O)(=O)c2cccc(C(=O)NCc4cccc(OC(F)(F)F)c4)c2C3=O)cc1OC	active: 1.84 µM	–
COc1ccccc1NC(=O)COc1ccc(Br)cc1CNCCCN1CCOCC1	inconclusive [activator, single point]	–
COc1ccc(N(CC(=O)Nc2c(C)n(C)n(-c3ccccc3)c2=O)S(=O)(=O)c2ccc(C)cc2)cc1OC	inconclusive [activator, single point]	–
NC(=O)CCC(NS(=O)(=O)c1ccc(Cl)cc1)C(=O)NCc1ccc(Cl)cc1 (centres undefined)	inconclusive [activator, single point]	–
CC(=O)C1(C)N(O)C(C)(C)C(c2cccs2)=[N+]1[O-] (centres undefined)	inconclusive [activator, single point]	–
Cc1cc(C(=O)CN2C(=O)C(=O)N(CCC3=CCCCC3)C2=O)c(C)n1C	–	inactive: 17.4%
COCCCNC(=O)/C(C#N)=C/c1c(N2CCN(c3cccc(Cl)c3)CC2)nc2c(C)cccn2c1=O	inconclusive [activator, single point]	–
CCOc1ccccc1-c1nc(-c2ccc(NC(=O)Cc3ccc(OC)cc3)cc2)no1	inconclusive [activator, full curve, poor fit]	–
Oc1ccccc1-c1n[nH]c(-c2ccccc2O)n1	inconclusive [activator, partial curve, poor fit]	–
COc1ccc(C(CCN2CCCC(C)C2)c2c(OC)cc(OC)c3c(C)cc(=O)oc23)cc1 (centres undefined)	inconclusive [activator, full curve, poor fit]	–
N#C/C(=C(/O)COC(=O)Cc1c[nH]c2ccccc12)c1nc2ccccc2[nH]1	inconclusive [activator, single point]	–
O=C(CSc1nc(Nc2ccccc2)nc(N2CCOCC2)n1)Nc1ccccc1Cl	inconclusive [activator, single point]	–
Cc1nn(CC(=O)Nc2ccccn2)c(C)c1Br	–	inactive: -0.447%
CCOCC(=O)NC1CCc2cc(OC)c(OC)c(OC)c2-c2ccc(SC)c(=O)cc21 (centres undefined)	–	inconclusive: 118% [activator]
Cc1cccc(N=C2SC(C)CN2C(=O)CN2C(=O)NC3(CCCC3)C2=O)c1 (centres undefined)	inconclusive [activator, single point]	–
COc1cc(/C=N/NC(=O)CC23CC4CC(CC(C4)C2)C3)cc(Br)c1OCC(=O)N(C)C	active: 18.4 µM	–
